ChEMBL document CHEMBL1201862, “PubChem BioAssay data set” (2004)
Values joined by “and” are separate entries in the source; they are usually repeats but may differ in a detail not shown here. Equal entries are not always repeated.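 Values below derive from 48-hour exposures of cells grown in 96-well plates, with endpoints linearly interpolated between the two concentrations bracketing the appropriate inhibition level. Abbreviation: GI50, concentration required for 50% inhibition of growth.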 Active and inactive are the calls of the source. Cut-off read from the data, not from the text of the source: active = GI50 up to about 1.1 µM and inactive = higher.

What follows are molecules tested on NCI-H322M (assay: growth of human tumour cells (NCI), 48 h).

SMILES | GI50
COc1ccc2c(c1)-c1nn(CCCN(C)C)c3ccc([N+](=O)[O-])c(c13)N2 | active: 0.201 µM
c1ccc(OCc2nnc3n2N=C(c2ccccc2)CS3)cc1 | inactive: > 100 µM
N#CC(C#N)=CNCCN1CCN(C=C(C#N)C#N)CC1 | inactive: > 100 µM
CC(=O)OC1COC(N2CCc3ccccc32)C(OC(C)=O)C1OC(C)=O (stereo unspecified) | inactive: > 100 µM
NS(=O)(=O)c1ccc(NC(=O)c2cccc3cc4ccccc4nc23)cc1 | inactive: 25.5 µM
O=C1/C(=C\c2ccccc2)CN(C(=O)CCN2CCCCC2)C/C1=C/c1ccccc1 | inactive: 2.12 µM
COC(=O)c1ccc2cc(O)ccc2c1 | inactive: > 100 µM
Oc1ccc(C(c2ccc(O)cc2)c2ccc(O)cc2)cc1 | inactive: 22.5 µM
CCCCC(=O)OC[n+]1ccc2c(C)c3[nH]c4ccc(OC)cc4c3c(C)c2c1 | active: 0.51 µM
CC1=CCC2(C#N)CCC1C2O (stereo unspecified) | inactive: > 100 µM
COC(=O)CC1C(C)(C)C(=O)C2CC3=C4CC(=O)OC(c5ccoc5)C4(C)CCC3C1(C)C2=O (stereo unspecified) | inactive: > 100 µM
CCOC(=O)N1c2ccccc2N(C(=O)OCC)C1CC(=O)/C=C/c1ccccc1 | inactive: 2.69 µM
C#CCOc1c(C(=O)OCC)c(=O)n(C)c2ccccc12 | inactive: > 100 µM
COC1CCC(OC)C(C2(C3CC(OC)CCC3OC)OC(=O)c3ccccc32)C1 (stereo unspecified) | inactive: > 100 µM
CO/C=C(/C(=O)OC)[C@@H]1C[C@@H]1c1ccc2ccccc2c1 | inactive: 55 µM
Cc1nnc2sc(Cc3cnc(N)s3)nn12 | inactive: > 100 µM
CN(C)CCN1C(=O)c2ccccc2C1(O)c1ccc(Cl)cc1 (stereo unspecified) | inactive: > 100 µM
NC1CC(=O)c2c(Br)csc21 (stereo unspecified) | inactive: > 100 µM
OC(Cc1ccc2ccccc2n1)(C(F)(F)F)C(F)(F)F | inactive: > 10 µM
Cc1ccc(-c2c(C#N)c(-c3ccccc3)c(C#N)c(=O)n2NS(=O)(=O)c2ccc(C)cc2)cc1 | inactive: 74.6 µM
CCC1CCCCN1CC(C(C)=O)C(c1ccccc1)c1c(O)c2ccccc2oc1=O (stereo unspecified) | inactive: > 100 µM
COc1ccc(-c2nc(-c3cnccn3)n(C3OC(CO)C(O)C(O)C3O)n2)cc1 (stereo unspecified) | inactive: > 100 µM
COc1ccccc1N1C(=O)CS(=O)(=O)C1c1cccc(Oc2ccccc2)c1 (stereo unspecified) | inactive: 23.6 µM

SMILES | GI50
CN1NC(c2ccccc2)=C(C#N)C(=O)CC1c1ccccc1Cl (stereo unspecified) | inactive: > 100 µM
COc1ccc(C2SCC(=O)N2NC(=O)C(C)Oc2ccccc2C)cc1 (stereo unspecified) | inactive: > 100 µM
COc1ccc(N2C(=O)/C(=C\c3cc(OC)c(OC)c(OC)c3)SC2c2ccccc2)cc1 (stereo unspecified) | inactive: > 100 µM
Cc1ccc2c(c1-c1ccccc1)C(=O)OC2 | inactive: > 100 µM
C#CCNC(CSSCC(N)C(=O)O)C(=O)O (stereo unspecified) | inactive: > 100 µM
COCC1OC(OC2OCC3OC4(OCC(O)(C(C)OC)C5OCOC54)OC3C2OC)C(OC)C(O)C1OC1OC(C)C(OC)C(OC2OC(C)C3OC4(CC(O)C(OC5CC(OC6CC(C)([N+](=O)[O-])C(OC)C(C)O6)C(OC(=O)c6c(C)c(Cl)c(O)c(Cl)c6OC)C(C)O5)C(C)O4)OC3(C)C2O)C1O (stereo unspecified) | inactive: > 100 µM
COc1ccc2c3c1O[C@H](c1ccc(O)cc1)[C@H]3[N+](C)(C)CC2 | inactive: > 100 µM
CC(C)(C)OC(=O)NCC(=O)N1CCCN(C(=O)CNC(=O)OC(C)(C)C)CC1 | inactive: > 100 µM
c1cc(CNC2C3CCC(C3)C2c2c[nH]c3ccccc23)cc(CNC2C3CCC(C3)C2c2c[nH]c3ccccc23)c1 (stereo unspecified) | inactive: 1.24 µM and inactive: 1.54 µM
CC(C)=CC(C)C(C(O)CCC1(c2ccoc2)OCCO1)S(=O)(=O)c1ccccc1 (stereo unspecified) | inactive: > 100 µM
O=C1/C(=C/c2cccs2)NC(=S)N1CN1CCOCC1 | inactive: > 100 µM
CCSc1s/c(=N/c2ccc(/N=c3\sc(C)c(SC)s3)cc2)sc1-c1ccc(C)cc1 | inactive: > 100 µM
N=c1nc(N)c2cc3c(N)nc(=N)c3cc12 | inactive: 29.8 µM
COc1cc(C(C#N)NNc2nc(C)cc(O)n2)cc(OC)c1OC (stereo unspecified) | inactive: > 100 µM
O=C(NCCNCCCNC(=O)c1cc(-c2ccccc2)nc2ccccc12)c1cccc(OCc2ccccc2)c1OCc1ccccc1 | inactive: 1.85 µM
Cc1ccccc1C(CCCO)C(=O)O (stereo unspecified) | inactive: > 100 µM
Clc1ccc(-c2nn3c(C45CC6CC(CC(C6)C4)C5)nnc3s2)cc1 | inactive: > 100 µM
CCCCCCCCCCCCCCCCCCNc1ccn(C2OC(COP(=O)(O)OCC3OC(n4cc(C)c(=O)[nH]c4=O)CC3O)C(O)C2O)c(=O)n1 (stereo unspecified) | inactive: 18.7 µM
COc1cc(=O)n2c3ccccc3n(C)c2c1C#N | inactive: > 100 µM
COc1cccc2ccc3c(c12)C(=O)OC31CCc2c(C)cccc21 (stereo unspecified) | inactive: 14.5 µM
Cn1c(=S)[nH]c2sc3c(c2c1=O)CCSC3 | inactive: 26.2 µM
COc1ccc(/C=C2/S/C(=N\c3ccccc3)N(NC(=O)Cc3ccccc3)C2=O)cc1 | inactive: > 100 µM
CC1(C)COC(c2cccc(C3=NC(C)(C)CO3)c2Br)=N1 | inactive: > 100 µM
